The campaign covered roughly 22,000 compounds. About 460 (2.1%) were called active. Inconclusive means that the source gave no clear call. Such entries were picked first, then a sample of the others.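 How the source made its calls: active means mean inhibition across valid replicates above about 65% (limit read from the data); inconclusive means mean under the limit, yet half or more replicates past it; inactive means the rest.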
Assay: Shh-driven Gli reporter inhibition – luminescence, Shh-LIGHT2 cells, Gli-luciferase, primary screen (AID 2313);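 further: pathway switched on by Shh-conditioned medium diluted 1 in 25 in low serum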
Conditions: 30 h, stronger effect = higher value

Row | SMILES | inhibition
1 | CCCCCC[C@H](O)/C=C/CC1C(=O)CC[C@H](O)C1=O (some centres not stated) | inactive: -33%
2 | C[C@H](CO)N1C[C@H](C)[C@H](CN(C)C(=O)Nc2ccccc2)Oc2c(NC(=O)C3CCCCC3)cccc2C1=O | inconclusive: 47.8%
3 | CC(C)c1c(O)ccc2c1CCC1C(C)(C)CCC[C@]21C (some centres not stated) | inconclusive: 59.6%
4 | Cc1noc(C)c1NC(=O)Nc1ccc2c(c1)CC(=O)N([C@H](C)CO)C[C@@H](C)[C@@H](CN(C)CC1CCCCC1)O2 | inconclusive: 53.5%
5 | CC(C)NC(=O)N(C)C[C@H]1Oc2ccc(NS(=O)(=O)c3ccc(F)cc3)cc2CC(=O)N([C@@H](C)CO)C[C@H]1C | inconclusive: 33.5%
6 | C[C@H]1CN([C@@H](C)CO)C(=O)Cc2cc(N(C)C)ccc2O[C@H]1CN(C)S(=O)(=O)c1cccs1 | inconclusive: 32.1%
7 | C[C@H]1CN([C@@H](C)CO)C(=O)c2cccc(NC(=O)Nc3ccc(F)cc3)c2O[C@@H]1CN(C)S(C)(=O)=O | inconclusive: 42%
8 | C[C@H](CO)N1C[C@H](C)[C@H](CN(C)S(=O)(=O)c2cn(C)cn2)Oc2ccc(NS(=O)(=O)c3ccccc3)cc2CC1=O | inconclusive: 14.1%
9 | C[C@H](CO)N1C[C@H](C)[C@H](CN(C)Cc2ccc(C(=O)O)cc2)Oc2ccc(NC(=O)Cn3cnnn3)cc2CC1=O | inconclusive: 14.1%
10 | C=C1C(=O)O[C@@H]2/C=C(\C)[C@H](OC(C)=O)C/C=C(/C)C[C@@H](OC(=O)/C(=C/CO)CO)C12 (some centres not stated) | inconclusive: 53%
11 | CNC[C@H]1Oc2c(NC(=O)NC3CCCCC3)cccc2C(=O)N([C@H](C)CO)C[C@H]1C | inconclusive: 48.3%
12 | N#Cc1c(SCC(=O)c2ccc(F)cc2)nsc1SCC(=O)c1ccc(F)cc1 | active: 80.9%
13 | CC1C(=O)C(=O)[C@@H]2O[C@@H]2C1=O (some centres not stated) | inconclusive: 46.8%
14 | N#CC1CN(CCc2ccccc2)CN(CCc2ccccc2)C1 | active: 68.6%
15 | CCCCc1ccc(NC(=O)N=S2CCN(C(=O)c3ccc(Cl)cc3)CC2)cc1 | inactive: 7.5%
16 | C[C@@H]1CN([C@H](C)CO)C(=O)c2cccc(NS(=O)(=O)c3ccc(Cl)cc3)c2O[C@H]1CN(C)C(=O)NC1CCCCC1 | inactive: -17%
17 | Cc1noc(C)c1NC(=O)Nc1cccc2c1O[C@@H](CN(C)C(=O)NC1CCCCC1)[C@@H](C)CN([C@@H](C)CO)C2=O | inconclusive: 12.2%
18 | CC(C)NC(=O)N(C)C[C@H]1Oc2ccc(NC(=O)Nc3ccc(C(F)(F)F)cc3)cc2C(=O)N([C@@H](C)CO)C[C@@H]1C | inactive: -18.7%
19 | C[C@@H]1CN([C@H](C)CO)C(=O)Cc2cc(NC(=O)C3CCCCC3)ccc2O[C@@H]1CN(C)Cc1ccc(Oc2ccccc2)cc1 | active: 69.7%
20 | CNC[C@@H]1Oc2ccc(NC(=O)Nc3ccc4c(c3)OCO4)cc2CC(=O)N([C@H](C)CO)C[C@H]1C | inconclusive: 29.7%
21 | CNC[C@H]1Oc2ccc(NC(=O)C3CCCCC3)cc2CC(=O)N([C@@H](C)CO)C[C@@H]1C | inactive: 39.6%

Row | SMILES | inhibition
22 | CSc1ccccc1NC(=O)c1cc2n(n1)C(C(F)(F)F)C1CCc3ccccc3C1N2 (configuration not stated) | inconclusive: 63.1%
23 | O=S(=O)(CCSc1ccc(C(F)(F)F)cn1)c1ccc(OC(F)(F)F)cc1 | inconclusive: 57.5%
24 | C[C@H]1CN([C@@H](C)CO)C(=O)Cc2cc(NS(=O)(=O)c3cn(C)cn3)ccc2O[C@@H]1CN(C)S(=O)(=O)c1ccccc1 | inconclusive: 39.3%
25 | CC(C)NC(=O)Nc1ccc2c(c1)CC(=O)N([C@@H](C)CO)C[C@H](C)[C@H](CN(C)C(=O)Nc1ccc3c(c1)OCO3)O2 | active: 65.3%
26 | C[C@@H]1CCCCO[C@@H](CN(C)CC2CCCCC2)[C@@H](C)CN([C@H](C)CO)C(=O)c2cc(NC(=O)Nc3cccc4ccccc34)ccc2O1 | inactive: -9.68%
27 | COc1ccc(C(=O)Nc2ccc(C(O)(C(F)(F)F)C(F)(F)F)cc2)cc1 | inconclusive: 64.2%
28 | Cc1ccc(S(=O)(=O)Nc2ccc3c(c2)CC(=O)N([C@@H](C)CO)C[C@@H](C)[C@@H](CN(C)S(=O)(=O)c2ccccc2)O3)cc1 | inconclusive: 49.7%
29 | O=S(=O)(NCCNC/C=C/c1ccc(Br)cc1)c1cccc2cnccc12 | active: 81%
30 | O=C(O)CCN1C(=O)C2C3c4ccccc4C(c4ccccc43)C2C1=O (configuration not stated) | inactive: -4.49%
31 | C[C@H]1CN([C@@H](C)CO)C(=O)c2cc(NC(=O)Nc3ccc(C(F)(F)F)cc3)ccc2O[C@H]1CN(C)S(C)(=O)=O | inconclusive: 23.7%
32 | C[C@@H]1CN([C@@H](C)CO)C(=O)c2cc(NC(=O)Nc3ccc(C(F)(F)F)cc3)ccc2O[C@@H]1CN(C)S(=O)(=O)c1ccccc1 | inconclusive: 41.6%
33 | O=C(c1ccccc1)c1nnn(-c2ccccc2)c1Nc1ccccc1 | inconclusive: 37.4%
34 | C=C(C)C(=O)O[C@H]1C[C@@]2(C)OC(=CC2=O)/C(COC(C)=O)=C\[C@H]2OC(=O)C(=C)C12 (some centres not stated) | inconclusive: 50.4%
35 | C=CCN1CCc2c(cc(O)c(O)c2Cl)C(c2ccccc2)C1 (configuration not stated) | inconclusive: 60.1%
36 | Cc1cc(C)cc(Sc2ccc3nnc(-c4ccccc4)n3n2)c1 | active: 67.2%
37 | C[C@@H]1CCCCO[C@H](CN(C)S(C)(=O)=O)[C@@H](C)CN([C@H](C)CO)C(=O)c2cc(NS(C)(=O)=O)ccc2O1 | inconclusive: 32.3%
38 | C[C@@H]1CN([C@H](C)CO)C(=O)Cc2cc(NS(=O)(=O)c3ccc(F)cc3)ccc2O[C@@H]1CN(C)Cc1ccc(C(F)(F)F)cc1 | inconclusive: 63.4%
39 | C[C@@H]1CCCCO[C@@H](CN(C)CC2CC2)[C@@H](C)CN([C@H](C)CO)C(=O)c2cc(NC(=O)CCC(F)(F)F)ccc2O1 | inconclusive: 43.9%
40 | Cc1[nH]c2ccccc2c1C(O)c1cccnc1 (configuration not stated) | inconclusive: 31.1%
41 | C=C(C)C(=O)OC1CC(CO)CCC/C(CO)=C\C2OC(=O)C(=C)C21 (configuration not stated) | active: 70.9%
42 | COc1cc(CSc2nnnn2-c2ccc(C)cc2C)cc(OC)c1OC | inconclusive: 30.5%
